Experimental data reported in the supplement of paper PMC6002552.
The list shows a part of the results. Single values are uncertain, as repeats are few or missing.

System: Bacillus subtilis 168 spores
Test: spore germination/outgrowth inhibition class (0 mild or none, 1 inhibitory, 3 highly inhibitory, 4 no outgrowth, 5 no germination) (ordinal class code); higher = stronger inhibition of spore germination/outgrowth
Conditions: 100 µg/ml; pH 7.4; 8 h
Experimental: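 Heat-activated Bacillus subtilis 168 spores (OD595 0.2) in TSB with AGFK germinants, buffered with 80 mM MOPS at pH 7.4, were exposed to 100 µg/ml compound (Pyxis Discovery library, catalogue IDs). OD595 was followed for 8 h at 37 °C in a plate reader. Each compound was assigned an ordinal inhibition class: 0 mild/no inhibition (reached 2x initial OD within 2-3 h), 1 inhibitory (3-6 h), 3 highly inhibitory (6-8 h), 4 no outgrowth within 8 h, 5 no germination (no OD decline).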

Spore germination/outgrowth inhibition class, active:
CCC(=O)Cc1nnc2c(Nc3ccc(Cl)cc3)nc3nonc3n12 4
Cc1cccc(Nc2nc3nonc3nc2Nc2ccccc2C)c1 4
Clc1ccc2[nH]c3c(c2c1)CCc1cn[nH]c1-3 5
c1ccc2c3c([nH]c2c1)-c1[nH]ncc1CC3 4
Cc1cccc2c1=NC(=O)C=2c1sc(=S)[nH]c1O 3
O=C1CC(=O)c2ccccc2-c2ccccc21 4
c1ccc(-c2cnc3nonc3n2)cc1 4
Clc1ccc(Nc2nc3nonc3n3nnnc23)cc1 4

Spore germination/outgrowth inhibition class, inactive:
Cc1nnsc1C(=O)NC(C)c1ccccc1 (stereo not given) 0
O=C1NC(=O)c2ccc3c4c(ccc1c24)C(=O)NC3=O 0
Cc1ccc(C(=O)Nc2nc3ccccc3s2)o1 0
Cn1nc(N)c2c(-c3ccccc3)c(C#N)c(N)nc21 0
CCc1[nH]nc2c1C(c1ccccc1)C(C#N)=C(N)O2 (stereo not given) 0
CCc1[nH]nc2c1C(c1cccc(Cl)c1)C(C#N)=C(N)O2 (stereo not given) 0
Cc1ncc([N+](=O)[O-])n1CC(=O)O 0
CN1C(=O)C(c2c(O)n(C)c3ccccc23)=NC1=S 0
NC(N)=Nc1nc(-c2ccc3c(c2)CC(=O)N3)cs1 0
O=C(Nc1ncn[nH]1)C1CCCO1 (stereo not given) 0
c1ccc2oc(-c3cn[nH]c3)nc2c1 0
O=c1[nH]c2nonc2nc1Nc1ccccc1F 0
CC(=O)Nc1nc(-c2ccc3c(c2)CCN3C(=O)C2CCCCC2)cs1 0
CC1=NNC(=S)NC(C)(C)C1 0
CCc1[nH]nc2c1C(c1cccc(F)c1)C(C#N)=C(N)O2 (stereo not given) 0
O=C1C(=O)c2ccccc2C([O-])=C1[n+]1ccccc1 0
CCC(=O)Nc1nc(-c2ccc3c(c2)CCN3C(C)=O)cs1 0
Cc1cccc(NC(=O)c2snnc2C)c1 0
Cc1ccc(NC(=O)c2snnc2C)cc1 0
CCn1ccn2nnnc2c1=Nc1ccccc1 0
CCOC(=O)c1nc(NC(C)=O)n[nH]1 0
c1ccc2[nH]c(-c3cnco3)cc2c1 1
COC(=O)c1nc(NC(C)=O)n[nH]1 0
N#Cc1c(NC(=O)C2CCCO2)sc2c1CCCCC2 (stereo not given) 0
O=C1CC(Sc2ncn[nH]2)C(=O)N1c1ccccc1 (stereo not given) 0
CCc1[nH]nc2c1C(c1ccc(F)cc1F)C(C#N)=C(N)O2 (stereo not given) 0
Nc1nnc2c(Nc3ccccc3)nc3nonc3n12 0
CCOC(=O)c1nonc1NC(C)=O 0
CC(=O)Nc1nncs1 0
CCc1[nH]nc2c1C(c1ccccc1Cl)C(C#N)=C(N)O2 (stereo not given) 0
c1ccc(Nc2nnns2)cc1 0
NC(=O)c1c(NC(=O)c2cccs2)sc2c1CCC2 0
